± gives the standard deviation of the averaged measurements. The full ranking holds about 2,900 compounds; the median of “NF-kB SEAP reporter activity, fold change vs agonist alone” is about 0.99, and the highest 2% start at about 2.6. The list shows a part of the results.
How the values were obtained:
RAW-Dual [1] = assay: NF-kB SEAP reporter activity, fold change vs agonist alone; higher = enhanced NF-kB activity; conditions: library stock concentration (final ~1000-fold dilution): 10 mM
Summary of the method: (§1)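 Supernatant from RAW-Dual macrophages was read after 20 hours for IRF by QuantiLuc luminescence and for NF-κB by QuantiBlue absorbance at 620 nm. The cells (50,000 cells/well in DMEM, 384-well plates, 37 °C, 5% CO2) had received 50 nL of library stock by pin tool and, 1 h later, a PRR agonist. Reporter activity is expressed relative to agonist-alone wells as fold change, and wells were flagged cytotoxic if IncuCyte confluency was under 70% of agonist controls in both mask sets.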

RAW-Dual [2] = assay: NF-kB SEAP reporter activity, fold change vs agonist alone; cytotoxicity flag (confluency mask): not cytotoxic; higher = enhanced NF-kB activity
Summary of the method: as §1

RAW-Dual [3] = assay: NF-kB SEAP reporter activity, fold change vs agonist alone; cytotoxicity flag (confluency mask): cytotoxic (confluency <70% of control); higher = enhanced NF-kB activity
Summary of the method: as §1

[4] = cytotoxicity flag (confluency mask): not cytotoxic, agonist: Imiquimod (TLR7) […]
[5] = cytotoxicity flag (confluency mask): not cytotoxic, agonist: MPLA (TLR4) […]
[6] = agonist: ODN 1826 (TLR9) 0.5 ug/mL
[7] = agonist: Pam2CSK4 (TLR2/6) 0.1 ug/mL
[8] = agonist: Pam3CSK4 (TLR2/1) 0.1 ug/mL
[9] = cytotoxicity flag (confluency mask): cytotoxic (confluency <70% of control), agonist: Imiquimod (TLR7) […]
[10] = cytotoxicity flag (confluency mask): cytotoxic (confluency <70% of control), agonist: MPLA (TLR4) […]

CC(C)C(=O)Nc1ccc([N+](=O)[O-])c(C(F)(F)F)c1
NF-kB SEAP reporter activity (RAW-Dual [1]; [4]): 1.63
NF-kB SEAP reporter activity (RAW-Dual [1]; [5]): 1.16

S=C(NCc1ccc2c(c1)OCO2)N1CCN(c2ncnc3c2oc2ccccc23)CC1
NF-kB SEAP reporter activity (RAW-Dual [1]; [4]): 0.726
NF-kB SEAP reporter activity (RAW-Dual [1]; [5]): 0.868

S=C(NCc1ccc2c(c1)OCO2)N1CCN(c2ncnc3c2oc2ccccc23)CC1 (library stock concentration (final ~1000-fold dilution): 10 mM)
NF-kB SEAP reporter activity (RAW-Dual [2]; agonist: LPS (TLR4) 0.1 ug/mL): 1.39
NF-kB SEAP reporter activity (RAW-Dual [2]; [6]): 0.905
NF-kB SEAP reporter activity (RAW-Dual [2]; [7]): 0.502
NF-kB SEAP reporter activity (RAW-Dual [2]; [8]): 0.768

Nc1ncnc2c1ncn2C(C=O)OC(C=O)CO (stereo not given) (library stock concentration (final ~1000-fold dilution): 10 mM)
NF-kB SEAP reporter activity (RAW-Dual [2]; agonist: LPS (TLR4) 0.1 ug/mL): 0.475
NF-kB SEAP reporter activity (RAW-Dual [2]; [6]): 0.527
NF-kB SEAP reporter activity (RAW-Dual [2]; [7]): 0.132
NF-kB SEAP reporter activity (RAW-Dual [2]; [8]): 0.339

Nc1ncnc2c1ncn2C(C=O)OC(C=O)CO (stereo not given)
NF-kB SEAP reporter activity (RAW-Dual [1]; [4]): 1.31
NF-kB SEAP reporter activity (RAW-Dual [1]; [5]): 0.717

CC1(C)CCC2=C(O1)c1ccccc1C(=O)C2=O (library stock concentration (final ~1000-fold dilution): 10 mM)
NF-kB SEAP reporter activity (RAW-Dual [3]; agonist: LPS (TLR4) 0.1 ug/mL): 0.208
NF-kB SEAP reporter activity (RAW-Dual [3]; [6]): 0.186
NF-kB SEAP reporter activity (RAW-Dual [3]; [7]): 0.0602
NF-kB SEAP reporter activity (RAW-Dual [3]; [8]): 0.154

CC1(C)CCC2=C(O1)c1ccccc1C(=O)C2=O
NF-kB SEAP reporter activity (RAW-Dual [1]; [9]): 0.125
NF-kB SEAP reporter activity (RAW-Dual [1]; [10]): 0.372

Cc1noc(C)c1-c1ccc(-c2cc(C(N)=O)c(NC(N)=O)s2)c(OC2CCNC2)c1 (stereo not given)
NF-kB SEAP reporter activity (RAW-Dual [1]; [4]): 0.654 ± 0.054
NF-kB SEAP reporter activity (RAW-Dual [1]; [5]): 0.683 ± 0.15

Cc1noc(C)c1-c1ccc(-c2cc(C(N)=O)c(NC(N)=O)s2)c(OC2CCNC2)c1 (stereo not given) (library stock concentration (final ~1000-fold dilution): 10 mM)
NF-kB SEAP reporter activity (RAW-Dual [2]; agonist: LPS (TLR4) 0.1 ug/mL): 0.567 ± 0.07
NF-kB SEAP reporter activity (RAW-Dual [2]; [6]): 0.449 ± 0.019
NF-kB SEAP reporter activity (RAW-Dual [2]; [7]): 0.275 ± 0.0078
NF-kB SEAP reporter activity (RAW-Dual [2]; [8]): 0.392 ± 0.058

O=C(NCC(O)CN1CCc2ccccc2C1)c1ccnc(NC2CCC2)c1 (stereo not given) (library stock concentration (final ~1000-fold dilution): 10 mM)
NF-kB SEAP reporter activity (RAW-Dual [2]; agonist: LPS (TLR4) 0.1 ug/mL): 0.908
NF-kB SEAP reporter activity (RAW-Dual [2]; [6]): 0.581
NF-kB SEAP reporter activity (RAW-Dual [2]; [7]): 1.03
NF-kB SEAP reporter activity (RAW-Dual [2]; [8]): 0.884

O=C(NCC(O)CN1CCc2ccccc2C1)c1ccnc(NC2CCC2)c1 (stereo not given)
NF-kB SEAP reporter activity (RAW-Dual [1]; [4]): 0.885
NF-kB SEAP reporter activity (RAW-Dual [1]; [5]): 0.997

Nc1nonc1/C(=N\O)Nc1ccc(F)c(Cl)c1
NF-kB SEAP reporter activity (RAW-Dual [1]; [4]): 0.904
NF-kB SEAP reporter activity (RAW-Dual [1]; [5]): 0.933

Nc1nonc1/C(=N\O)Nc1ccc(F)c(Cl)c1 (library stock concentration (final ~1000-fold dilution): 10 mM)
NF-kB SEAP reporter activity (RAW-Dual [2]; agonist: LPS (TLR4) 0.1 ug/mL): 1.01
NF-kB SEAP reporter activity (RAW-Dual [2]; [6]): 0.882
NF-kB SEAP reporter activity (RAW-Dual [2]; [7]): 0.938
NF-kB SEAP reporter activity (RAW-Dual [2]; [8]): 0.585

COC(=O)C1=C(C)NC(C)=C(C(=O)OC(C)C)C1c1cccc2nonc12 (stereo not given) (library stock concentration (final ~1000-fold dilution): 10 mM)
NF-kB SEAP reporter activity (RAW-Dual [2]; agonist: LPS (TLR4) 0.1 ug/mL): 1.4
NF-kB SEAP reporter activity (RAW-Dual [2]; [6]): 0.719
NF-kB SEAP reporter activity (RAW-Dual [2]; [7]): 0.685
NF-kB SEAP reporter activity (RAW-Dual [2]; [8]): 0.926

COC(=O)C1=C(C)NC(C)=C(C(=O)OC(C)C)C1c1cccc2nonc12 (stereo not given)
NF-kB SEAP reporter activity (RAW-Dual [1]; [4]): 0.735
NF-kB SEAP reporter activity (RAW-Dual [1]; [5]): 1.36

Cn1cncc1C(N)(c1ccc(Cl)cc1)c1ccc2c(c1)c(-c1cccc(Cl)c1)cc(=O)n2C (stereo not given) (library stock concentration (final ~1000-fold dilution): 10 mM)
NF-kB SEAP reporter activity (RAW-Dual [3]; agonist: LPS (TLR4) 0.1 ug/mL): 0.821
NF-kB SEAP reporter activity (RAW-Dual [3]; [6]): 0.471
NF-kB SEAP reporter activity (RAW-Dual [3]; [7]): 0.191
NF-kB SEAP reporter activity (RAW-Dual [3]; [8]): 0.317

Cn1cncc1C(N)(c1ccc(Cl)cc1)c1ccc2c(c1)c(-c1cccc(Cl)c1)cc(=O)n2C (stereo not given)
NF-kB SEAP reporter activity (RAW-Dual [1]; [9]): 1.24
NF-kB SEAP reporter activity (RAW-Dual [1]; [10]): 0.539
